Single values are uncertain, as repeats are few or missing.
Key:
CHO-K1 [1] = assay: relative survival (nuclei to bead ratio vs DMSO control) (% of vehicle control); higher = more surviving cells
Method: (§1)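 Flow-cytometric in vitro micronucleus assay (Litron MicroFlow) in CHO-K1 cells in 96-well plates, 19 concentrations (4.5-200 µM, n=1 per concentration). Without S9, cells were exposed for 24 h and sampled at 48 h. With Aroclor 1254-induced rat liver S9, cells were exposed for 3-4 h and sampled at 27-28 h. Read-outs are %MN and %hypodiploid nuclei relative to nucleated events, and relative survival as the nuclei-to-bead ratio versus the 1% DMSO vehicle control (x100).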

CHO-K1 [2] = assay: hypodiploid nuclei frequency (% of nucleated events); higher = more hypodiploid events (aneugenic)
Method: as §1

CHO-K1 [3] = assay: micronucleus frequency (% of nucleated events); higher = more micronuclei (genotoxic)
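For hypodiploid nuclei frequency (% of nucleated events) in this document: hypodiploid nuclei gated on a flow cytometer with 488 nm excitation after SYTOX Green staining, cultures at 37 °C, positive controls vinblastine without S9 and cyclophosphamide with S9.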
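For micronucleus frequency (% of nucleated events) in this document: cells lysed with nuclei stained by SYTOX Green, then micronucleus-gated events counted against nucleated events by flow cytometry with 488 nm excitation.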
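For relative survival (nuclei to bead ratio vs DMSO control) in this document: Lysed-cell nuclei stained with SYTOX Green and counted against counting beads by flow cytometry at 488 nm excitation, with vinblastine (no S9) and cyclophosphamide (plus S9) as positive controls.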

O=C1CCCO1 [4-Butyrolactone]
Settings | hypodiploid nuclei frequency, CHO-K1 [2] [%] | micronucleus frequency, CHO-K1 [3] [%] | relative survival, CHO-K1 [1]
concentration: 4.46 (µM), S9 metabolic activation: with S9, exposure time: 3-4 hours | 0.28 | 1.04 | 109
concentration: 4.46 (µM), S9 metabolic activation: without S9, exposure time: 24 hours | 1.26 | 1.02 | 79.8
concentration: 5.57 (µM), S9 metabolic activation: with S9, exposure time: 3-4 hours | 0.26 | 1.04 | 82.8
concentration: 5.57 (µM), S9 metabolic activation: without S9, exposure time: 24 hours | 0.78 | 1.02 | 105
concentration: 6.97 (µM), S9 metabolic activation: with S9, exposure time: 3-4 hours | 0.26 | 1.42 | 101
concentration: 6.97 (µM), S9 metabolic activation: without S9, exposure time: 24 hours | 0.44 | 1.26 | 98.6
concentration: 8.71 (µM), S9 metabolic activation: with S9, exposure time: 3-4 hours | 0.32 | 1.22 | 92.7
concentration: 8.71 (µM), S9 metabolic activation: without S9, exposure time: 24 hours | 1.26 | 0.86 | 96.2
concentration: 10.9 (µM), S9 metabolic activation: with S9, exposure time: 3-4 hours | 0.16 | 1.56 | 86.4
concentration: 10.9 (µM), S9 metabolic activation: without S9, exposure time: 24 hours | 0.64 | 1.08 | 101
concentration: 13.6 (µM), S9 metabolic activation: with S9, exposure time: 3-4 hours | 0.24 | 2.72 | 74.7
concentration: 13.6 (µM), S9 metabolic activation: without S9, exposure time: 24 hours | 0.94 | 1.46 | 85.3
concentration: 17 (µM), S9 metabolic activation: with S9, exposure time: 3-4 hours | 0.14 | 1.04 | 89.6
concentration: 17 (µM), S9 metabolic activation: without S9, exposure time: 24 hours | 0.6 | 1.58 | 86.9
concentration: 21.3 (µM), S9 metabolic activation: with S9, exposure time: 3-4 hours | 0.14 | 0.76 | 83.5
concentration: 21.3 (µM), S9 metabolic activation: without S9, exposure time: 24 hours | 0.8 | 1.46 | 101
concentration: 26.6 (µM), S9 metabolic activation: with S9, exposure time: 3-4 hours | 0.24 | 1.06 | 121
concentration: 26.6 (µM), S9 metabolic activation: without S9, exposure time: 24 hours | 0.66 | 1.1 | 102
concentration: 33.2 (µM), S9 metabolic activation: with S9, exposure time: 3-4 hours | 0.18 | 1 | 97.8
concentration: 33.2 (µM), S9 metabolic activation: without S9, exposure time: 24 hours | 0.64 | 1.48 | 108
concentration: 41.5 (µM), S9 metabolic activation: with S9, exposure time: 3-4 hours | 0.22 | 1 | 94.6
concentration: 41.5 (µM), S9 metabolic activation: without S9, exposure time: 24 hours | 1.14 | 1.84 | 92
concentration: 51.9 (µM), S9 metabolic activation: with S9, exposure time: 3-4 hours | 0.14 | 1.2 | 80.7
concentration: 51.9 (µM), S9 metabolic activation: without S9, exposure time: 24 hours | 0.86 | 1.46 | 81.4
concentration: 64.9 (µM), S9 metabolic activation: with S9, exposure time: 3-4 hours | 0.36 | 1.04 | 86
concentration: 64.9 (µM), S9 metabolic activation: without S9, exposure time: 24 hours | 1.04 | 1.76 | 85.6
concentration: 81.1 (µM), S9 metabolic activation: with S9, exposure time: 3-4 hours | 0.22 | 0.94 | 78.9
concentration: 81.1 (µM), S9 metabolic activation: without S9, exposure time: 24 hours | 0.88 | 1.52 | 98.2
concentration: 101 (µM), S9 metabolic activation: with S9, exposure time: 3-4 hours | 0.22 | 0.9 | 84.8
concentration: 101 (µM), S9 metabolic activation: without S9, exposure time: 24 hours | 0.84 | 1.66 | 88.5
concentration: 127 (µM), S9 metabolic activation: with S9, exposure time: 3-4 hours | 0.12 | 1 | 101
concentration: 127 (µM), S9 metabolic activation: without S9, exposure time: 24 hours | 0.74 | 2.04 | 93.8
concentration: 158 (µM), S9 metabolic activation: with S9, exposure time: 3-4 hours | 0.22 | 1.44 | 83.2
concentration: 158 (µM), S9 metabolic activation: without S9, exposure time: 24 hours | 1.26 | 2.18 | 74.7
concentration: 198 (µM), S9 metabolic activation: with S9, exposure time: 3-4 hours | 0.24 | 1.1 | 81.3
concentration: 198 (µM), S9 metabolic activation: without S9, exposure time: 24 hours | 1.42 | 2.28 | 78.4

From the supplement of paper PMC9151546
